Experimental data taken from PubChem BioAssay AID1508624 (National Center for Advancing Translational Sciences (NCATS), 2021).
Among all 48,000 compounds or so, about 120 (0.25%) were called active. Another 4% or so got no clear call; they are omitted. Calls follow the shape of the dose curve; as a rule, active = well fitted activation curve with a large enough effect; inconclusive = small, poorly fitted or top-dose-only effect, or another doubt; inactive = no such curve, though single readings can be large or run the other way. This is one part of the list.

Test: Primary qHTS for Identification of Small Molecule Activators of Huntingtin-Antisense Promoter Activity; also: nearly all actives have a fitted effect of over 55% in size
Settings: HEK293 HTT-AS promoter firefly luciferase reporter, 24 h; series mostly up to 57.5 µM; activity change, positive = activation: at the top concentration
Procedure, shortened: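 HEK293 Fluc reporter, 2,500 cells/well, 24 h pre-culture; cpds up to 57.5 uM final, 24 h 37 degrees C; Dual-Glo, 10 min RT; normalized vehicle = 0%, zero RLU = -100%.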

Activity change, positive = activation, inactive:
O=C(c1ccccc1Cl)n1nc(-c2ccco2)nc1NCc1cccs1 29.7%
Cc1nc2cnc3ccc(C#Cc4cccnc4)cc3c2n1-c1ccc(C(C)(C)C#N)cc1 -43.8%
CCN(CC)c1ccc(NC(=O)COCc2cc(-c3ccc4c(c3)OCO4)on2)c(C)c1 -8.52%
Cc1ccccc1Cn1c2ccccc2c2cnn(CC(=O)NCc3cccc(Cl)c3)c(=O)c21 -27%
CCOC(=O)c1ccc(CN(Cc2ccc(F)cc2)S(=O)(=O)c2ccc(F)c(C(=O)Nc3cc(Cl)ccc3OC)c2)cc1 -16%
Cc1ccc(N2CCN(C(=O)c3c(C)oc4ncn(C)c(=O)c34)CC2)c(C)c1 -4.24%
Cc1ccc(NC(=O)CSc2nc3c(oc4ccccc43)c(=O)n2Cc2ccco2)cc1F -3.54%
Cc1nc(-n2nc(C)c(Cc3ccc(Cl)cc3)c2C)sc1C(=O)N1CCC(C)CC1 -13.3%
COc1cccc(C(=O)Nc2nc(-c3nnn(-c4ccccc4C(F)(F)F)c3C)ns2)c1 -25.8%
COc1cccc(-c2nc(Cn3c(=O)cc(C)c4c(C)nn(-c5ccccc5)c43)c(C)o2)c1OC -5.5%
COc1ccc(-c2nc3ccccc3n2Cc2ccccc2)cc1 0.535%
CCCCCOc1ccc(NC(=O)Cn2c(-c3nonc3N)nc3ccccc32)cc1 -20.1%
Cc1c(Cl)ccc2sc(N3CCN(C(=O)CCS(=O)(=O)c4ccc(F)cc4)CC3)nc12 -48.6%
CC1=C(C(=O)Nc2ccccc2)C(c2ccccn2)n2nc(SCc3ccccc3)nc2N1 (configuration not stated) -21.2%
Cc1ccc(-n2nc(C)c3c(C(=O)Nc4ccccc4C(F)(F)F)cc(C)nc32)cc1 -21.3%
Cc1ccc2c(c1)C(c1ccccc1)N(C(=O)COc1ccc(Cl)cc1Cl)CC(=O)N2 (configuration not stated) -25.1%
CCCCN1C(=O)C(O)(CC(=O)c2ccc(CC)cc2)c2cc(Br)ccc21 (configuration not stated) -26.4%
CCCN(C(=O)c1cc2c(=O)oc3ccc(C)cc3c2s1)c1ccc(OCC)cc1 -8.98%
COc1cccc(CNC(=O)Cn2nc(C)n3c(cc4cc(C)ccc43)c2=O)c1OC -0.209%
CCSc1nc(-c2cccc(Cl)c2)nc2c1Cc1c(CO)cnc(C)c1O2 -7.8%
CN[C@H]1[C@@H](O[C@@H]2[C@H](O[C@@H]3[C@@H](O)[C@@H](O)[C@@H](N=C(N)N)[C@@H](O)[C@@H]3N=C(N)N)O[C@H](C)[C@@]2(O)C=O)O[C@@H](CO)[C@@H](O)[C@H]1O 0.657% [at 19.1 µM, percent change from vehicle, -100% = no light]
COc1ccccc1CNC(=O)C(=O)NCC(c1ccco1)S(=O)(=O)c1ccc(F)cc1 (configuration not stated) -13.3%
COc1ccc(C)c2sc(NC(=O)c3ccc(S(=O)(=O)N4CCOCC4)cc3)nc12 -7.34%
COc1cccc(N2CCN(C(=O)c3cnc4c(-c5ccc(F)cc5)c(C)nn4c3C)CC2)c1 -14.6%
COc1ccc(C(=O)Oc2c(Sc3ccccc3)c(C)nn2-c2ccccc2)c(OC)c1 -76.6%
COc1ccc(C2Nc3ccccc3-c3cc(C)nn32)c(OC)c1 (configuration not stated) 0.956%
Cc1cccc(C)c1OCCn1c(CCNC(=O)C2CCCCC2)nc2ccccc21 -27.6%
COC(=O)c1ccccc1NS(=O)(=O)c1cc2c3c(c1)CC(=O)N3CCC2 -7.05%
CCN(CC)S(=O)(=O)c1ccc2c(c1)N(CC(=O)Nc1ccc(Cl)cc1)C(=O)C1CCCN21 (configuration not stated) -14.1%
CC1=C(C(=O)Nc2cc3cn[nH]c3cc2F)C(c2ccc(Cl)cc2F)N=C(c2ccnc(Cl)c2)N1 (configuration not stated) -23.4%
CC(C)(C)c1ccc(C(=O)NCC(c2ccco2)S(=O)(=O)c2ccccc2)cc1 (configuration not stated) -22%
O=C(CSc1nc2c([nH]c3ccccc32)c(=O)n1-c1ccccc1)Nc1cccc(C(F)(F)F)c1 -34.1%
Cc1ccc(N(C)C(=O)Cn2ncc3c([nH]c4ccccc43)c2=O)cc1C -16.5%
O=C(NC1CCCCC1)c1ccc(CSc2nc3ccncc3n2Cc2cccc(F)c2)cc1 -18.6%
CCc1ccc(CNC(=O)c2ccc3c(c2)c(C)c(C)n3Cc2ccccc2)cc1 -35.1%
CCOC(=O)N1CCc2c(sc(NCc3cc(OC)ccc3OC)c2C(=O)Nc2cc(OC)ccc2OC)C1 -34.4%
COC(=O)c1cc(-c2ccc(Cl)cc2)c2c(=O)[nH]c(=O)n(C)c2n1 -7.13%
CCOCCCNC(=O)C1CCN(c2nc3ccc(C)cc3[nH]2)CC1 1.01%
COc1ccc(N2CCN(C(=O)Cn3cnc4sc(C)c(S(=O)(=O)N5CCCCC5)c4c3=O)CC2)cc1 13.5%
Cc1ccc(NC(=O)CCn2cccn2)c(C)c1 5.42%
Cc1ccc(S(=O)(=O)NC(=O)NC2CCCCCCC2)cc1 -3.41%
CCc1nn(CC(=O)N2CCN(c3cccc(C)c3)C(C)C2)c(=O)c2cc3sccc3n12 (configuration not stated) -13%
CCOCCCNC(=O)C(c1ccc(C)cc1)N(Cc1ccc2c(c1)OCO2)C(=O)c1ccccc1O (configuration not stated) 1.34%
O=C(CSc1nnc2scc(-c3ccc(Cl)cc3)n12)Nc1ccc(F)cc1 -5.14%
COc1ccccc1C(=O)NC1(C(F)(F)F)NC(=O)N(CCc2ccccc2)C1=O (configuration not stated) -15.9%
COC(=O)[C@H]1[C@H]2C[C@@H]3c4[nH]c5cc(OC)ccc5c4CCN3C[C@H]2C[C@@H](OC(=O)c2cc(OC)c(OC)c(OC)c2)[C@@H]1OC -17.3%
Cc1ccc(Nc2c(-c3cccnc3)nc3ccc(C)cn23)cc1 -4.56%
COc1cccc(C2=CC(c3ccccc3F)n3ncc(C(=O)Nc4ccc(F)cc4)c3N2)c1 (configuration not stated) -31.4%
COc1cccc(NC(=O)CSc2cc(C)c3ccccc3n2)c1 -14.3%
COc1ccccc1-c1nc(CNC(=O)NC2CCCCC2)c(C)o1 -7.26%
Cc1ccc(NC(=O)CCn2nc(C)c3c(C)n(-c4ccccc4)nc3c2=O)cc1Cl -13.7%
O=C(Cn1ncc2ccsc2c1=O)N1CCN(c2ccc(Cl)cc2)CC1 -38.1%
CC1CCCCN1Cc1nc2c(c(=O)n(C)c(=O)n2C)n1Cc1ccc(Br)cc1 (configuration not stated) 15.7%
COc1ccc(NC(=O)c2c(-c3ccc(C)cc3)nnc3ccccc23)cc1OC 6%
Cc1ccc2c(Sc3ccc(Cl)cc3)c(C(=O)N3CCCCC3)[nH]c2c1 -16.8%
CC(C)C[C@H](NC(=O)[C@@H](O)[C@H](N)Cc1ccccc1)C(=O)O -16.4%
CC(C)c1ccc(NC(=O)c2cn(C3CCCC3)c(=O)c3c2c2ccccc2n3C)cc1 -21.6%
